# Reference: PubChem BioAssay AID588342 (National Center for Advancing Translational Sciences (NCATS), 2011)
# Screen size: about 360,000 compounds; about 25,000 (6.9%) were called active. The inconclusive results got no clear call from the source; some entries with a clear call stand among them for comparison. Calls come from the whole dose curve; as a rule, active = well fitted inhibition curve with a large enough effect; inconclusive = small, poorly fitted or top-dose-only effect; inactive = flat fitted curve, though single readings scatter. Potencies of inconclusive entries are doubtful fits and often do not repeat.
# Biological target: Luciferin 4-monooxygenase (Photinus pyralis) (UniProt P08659)
# Test: qHTS profiling assay for firefly luciferase inhibitor/activator using purifed enzyme and Km concentrations of substrates (counterscreen for miR-21 project); note: nearly all actives have a fitted effect of over 55% in size;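 for activity change, negative = inhibition: plate controls were vehicle for no effect and reference inhibitor for full effect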
# Settings: purified FLuc, luminescence inhibition; series mostly up to 57.5 µM; activity change, negative = inhibition: at the top concentration
# Procedure, shortened: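 Purified P. pyralis luciferase, 10 nM final, with Km-level 10 uM D-luciferin and 10 uM ATP in 50 mM Tris acetate pH 7.5, 10 mM Mg acetate, 0.01% Tween-20, 0.05% BSA; 6-point qHTS titration about 60 µM downward; luminescence read.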
# Potency is the fitted concentration of half-maximal effect; tags give direction and shape of the fitted curve.
# Sequence of UniProt P08659 (P08659 whole entry, looked up): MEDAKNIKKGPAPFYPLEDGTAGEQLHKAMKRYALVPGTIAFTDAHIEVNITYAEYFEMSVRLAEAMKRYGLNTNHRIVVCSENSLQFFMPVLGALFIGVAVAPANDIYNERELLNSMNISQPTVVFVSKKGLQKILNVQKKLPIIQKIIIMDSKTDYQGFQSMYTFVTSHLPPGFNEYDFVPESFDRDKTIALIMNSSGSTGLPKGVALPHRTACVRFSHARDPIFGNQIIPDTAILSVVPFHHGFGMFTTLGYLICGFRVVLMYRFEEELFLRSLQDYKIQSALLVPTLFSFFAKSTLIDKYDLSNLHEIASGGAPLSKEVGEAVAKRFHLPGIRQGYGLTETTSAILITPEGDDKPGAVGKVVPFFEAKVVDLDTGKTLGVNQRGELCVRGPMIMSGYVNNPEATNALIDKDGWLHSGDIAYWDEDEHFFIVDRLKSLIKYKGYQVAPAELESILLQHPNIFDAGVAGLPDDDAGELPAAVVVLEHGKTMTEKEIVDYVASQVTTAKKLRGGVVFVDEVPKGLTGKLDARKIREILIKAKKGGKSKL
SMILES,Potency,"activity change, negative = inhibition"
COc1ccc(OCC(=O)N(Cc2cccs2)c2ccc(OC)cc2)cc1,"inconclusive: 37.9 µM [inhibitor, partial curve, poor fit]",–
COc1cc(N=Cc2c(CO)cnc(C)c2O)cc(OC)c1OC,–,inactive: 8.88%
COc1ccc(Cn2c(SCC(=O)NCc3ccc(Cl)cc3)nc3ccsc3c2=O)cc1,–,inactive: -0.982%
CCOC(=O)c1ccc(-n2c(CCC(=O)O)ccc2-c2ccc(Br)cc2)cc1,"inconclusive: 21.3 µM [inhibitor, single point]",–
CCCn1c(N)c(N(CCOC)C(=O)c2ccc(Cl)c([N+](=O)[O-])c2)c(=O)[nH]c1=O,–,inactive: -1.18%
CC(Oc1ccc2c3c(c(=O)oc2c1)CCC3)C(=O)NCC1CCC(C(=O)O)CC1 (centres undefined),–,inactive: -2.75%
O=c1cc(-c2ccc(Cl)c(Cl)c2)[nH][nH]1,"inconclusive: 30.1 µM [inhibitor, partial curve, poor fit]",–
Cc1ccc(NC(=S)N/N=C2/CCCCc3ccccc32)cc1,"inconclusive: 15.1 µM [inhibitor, partial curve]",–
O=C(Nc1ccc(Cl)c(Cl)c1)C1CC(=O)N(c2ccc(Br)cc2)C1 (centres undefined),–,inactive: -0.28%
COc1ccc2c(c1)CCC/C2=N\Nc1nc(C(=O)NN)cs1,active: 1.35 µM,–
COCCN(C(=O)CSc1nnc(-c2ccc(C(C)(C)C)cc2)n1N)c1c(N)n(CC(C)C)c(=O)[nH]c1=O,"inconclusive: 21.3 µM [inhibitor, partial curve]",–
O=C(O)CNC(=S)N(Cc1ccccc1Cl)C1CCCCC1,"inconclusive: 30.1 µM [inhibitor, single point]",–
CCCCc1nc2cc(C(=O)N3CCCCC3COC)ccc2o1 (centres undefined),"inconclusive: 26.9 µM [inhibitor, partial curve, poor fit]",–
Cc1ccc(OCCn2nc3ccccc3n2)c(C)c1,"inconclusive: 19 µM [inhibitor, partial curve]",–
CCc1cc2ccccc2nc1Cl,–,inactive: -12.4%
O=C1CCC(=O)N1c1ccc(-c2nc3sc4c(c3c(=O)o2)CCC4)cc1,active: 21.3 µM,–
CCc1ccc(NCc2cc3ccc(OC)cc3n(CC(=O)Nc3ccc(F)cc3F)c2=O)cc1,–,inactive: 5.8%
Clc1ccc2nc(CSc3ncn[nH]3)cn2c1,"inconclusive: 30.1 µM [inhibitor, single point]",–
CCCCC(=O)Nc1nc(C)c(-c2csc(Nc3ccc(Cl)cc3)n2)s1,"inconclusive: 23.9 µM [inhibitor, single point]",–
CC1=NN(C(N)=S)C(=O)C1N=Nc1ccc(Cl)cc1 (centres undefined),active: 3.38 µM,–
CC1(C)CC(NC(=O)c2cc([N+](=O)[O-])cc([N+](=O)[O-])c2)CC(C)(C)N1,–,inactive: -3.56%
CCC(C(=O)NC(C)(C)C)N(Cc1ccc(F)cc1)C(=O)c1snc(C(N)=O)c1N (centres undefined),–,inactive: -6.3%
CCC1CCCCN1C(=O)CCCOc1ccccc1 (centres undefined),active: 19 µM,–
COc1ccc(CC(=O)Nc2sc3c(c2C(=O)Nc2cccc(Cl)c2)CCCCC3)cc1,"inconclusive: 15.1 µM [inhibitor, partial curve, poor fit]",–
CCn1cc(Br)c(C(=O)Nc2ccc(C(=O)OC(C)C)cc2)n1,active: 15.1 µM,–

SMILES,Potency,"activity change, negative = inhibition"
O=C1NC(=O)/C(=C\c2ccccc2OCc2ccccc2)S1,active: 26.9 µM,–
O=C(Oc1ccc(-c2cnc3ccccc3n2)cc1)c1cccc([N+](=O)[O-])c1,"inconclusive: 1.69 µM [inhibitor, partial curve, poor fit]",–
O=C(Cc1ccc([N+](=O)[O-])cc1)NC1CCCCCC1,–,inactive: -4.76%
COc1ccc2sc(-c3ccc(N(C)C)cc3)c(C#CCO)c2c1,active: 8.49 µM,–
Cc1ccc(C)c(NC(=O)CS(=O)(=O)c2cn(C)c3ccccc23)c1,–,inactive: -1.05%
COC(=O)C1(Cc2cc(-c3ccc(OC)cc3OC)no2)CCN(C(=O)OC(C)(C)C)CC1,"inconclusive: 37.9 µM [inhibitor, partial curve, poor fit]",–
O=C(Cn1cc(SCc2ccc(C(F)(F)F)cc2)c2ccccc21)N1CCOCC1,"inconclusive: 23.9 µM [inhibitor, single point]",–
Cc1cc(=O)oc2cc(NC(=O)c3ccccc3OC(F)F)ccc12,"inconclusive: 15.1 µM [inhibitor, partial curve]",–
COC(=O)c1ccccc1NC(=O)Cn1c(CCC(=O)O)ccc1-c1cccs1,"inconclusive: 19 µM [inhibitor, single point]",–
COc1ccc(-c2nc(SCC(=O)N3CCCC3)n[nH]2)cc1,"inconclusive: 33.8 µM [inhibitor, single point]",–
O=C(COC(=O)C1CCN(S(=O)(=O)c2cccc3cccnc23)CC1)c1ccccc1,–,inactive: -19.2%
CCOC(=O)c1ccc(-n2cc(C(=O)c3cccnc3)nn2)cc1,"inconclusive: 0.953 µM [inhibitor, full curve]",–
CCSc1nc(N)c2c3c(sc2n1)CCC3,"inconclusive: 7.57 µM [inhibitor, partial curve]",–
CCOC(=O)c1cc(-c2nnc(-c3ccc(Cl)cc3)o2)c(C)nc1C,–,inactive: 0.608%
COc1ccc2nc(N3CCN(C(=O)C4COc5ccccc5O4)CC3)sc2c1 (centres undefined),active: 6.01 µM,–
CCCCC[C@H]1CN(C2CCCCC2)C(=O)[C@@H]1CC(=O)NCc1ccccc1,–,inactive: 0.244%
COCCN=c1scc(-c2cccs2)n1/N=C(\C)c1ccco1,active: 9.53 µM,–
CCOc1ccc(C(=O)CCC(=O)Nc2cc(C)ccn2)cc1,"inconclusive: 19 µM [inhibitor, single point]",–
CCC(=O)Nc1ccc(NC(=O)c2cc3ccccc3o2)cc1,"inconclusive: 16.9 µM [inhibitor, partial curve]",–
O=C1CCCC2=C1C(c1ccc(O)c(O)c1)Nc1ccc3ncccc3c12 (centres undefined),"inconclusive: 37.9 µM [inhibitor, single point]",–
O=C1C=C(N2CCCCCC2)C(=O)N1c1ccc(Cl)cc1,active: 2.13 µM,–
Cc1cc(OCC(=O)Nc2ccc3c(c2)OCCO3)ccc1Cl,active: 19 µM,–
CC(=O)c1ccc(NC(=O)CN2C(=O)CCc3ccccc32)cc1,active: 6.01 µM,–
O=C(CSc1nnc(Nc2ccccc2F)s1)NC1CC1,"inconclusive: 16.9 µM [inhibitor, partial curve, poor fit]",–
